Read-outs that look alike come from different tables or passages of the source. These are yes or no findings as the source states them, for the method shown. Binding seen in cells or lysates may run through a third protein. Some entries that bind do so weakly or less than the wild type. For some assays here: Tags and fused reporters may be left off the sequences shown.

Amino acid sequences for entries named in this document (tags omitted). A change or cut given only in a name is not applied to a line headed by its entry. Residues count along the entry.
UniProt Q96NL1: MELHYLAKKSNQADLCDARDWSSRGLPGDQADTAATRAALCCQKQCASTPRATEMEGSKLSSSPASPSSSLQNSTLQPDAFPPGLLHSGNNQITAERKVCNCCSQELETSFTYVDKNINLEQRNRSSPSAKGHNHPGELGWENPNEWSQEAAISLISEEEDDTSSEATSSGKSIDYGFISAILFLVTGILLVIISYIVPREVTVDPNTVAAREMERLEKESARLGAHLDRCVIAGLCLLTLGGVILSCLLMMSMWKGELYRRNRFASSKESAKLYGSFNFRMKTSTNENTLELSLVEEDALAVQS
UniProt Q676U5: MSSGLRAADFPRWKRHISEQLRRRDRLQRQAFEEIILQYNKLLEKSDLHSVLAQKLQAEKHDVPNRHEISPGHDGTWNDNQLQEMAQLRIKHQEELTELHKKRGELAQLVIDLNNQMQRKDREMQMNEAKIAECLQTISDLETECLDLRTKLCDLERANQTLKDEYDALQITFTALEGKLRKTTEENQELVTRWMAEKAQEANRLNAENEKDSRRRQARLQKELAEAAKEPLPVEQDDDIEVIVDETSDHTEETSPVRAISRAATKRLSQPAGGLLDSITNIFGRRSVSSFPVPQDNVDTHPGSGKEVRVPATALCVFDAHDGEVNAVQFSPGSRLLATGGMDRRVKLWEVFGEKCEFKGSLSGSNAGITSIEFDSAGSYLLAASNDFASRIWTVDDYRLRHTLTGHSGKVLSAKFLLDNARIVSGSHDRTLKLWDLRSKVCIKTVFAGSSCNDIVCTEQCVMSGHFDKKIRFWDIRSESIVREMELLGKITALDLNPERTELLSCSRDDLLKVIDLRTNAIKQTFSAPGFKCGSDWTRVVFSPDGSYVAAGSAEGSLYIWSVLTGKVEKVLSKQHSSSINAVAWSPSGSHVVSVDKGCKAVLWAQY
GFP-ATG16L1(1–320): residues 1-320 of Q676U5

This is an account of results in publication PMC5596558.

The target of assay [1] is GST-tagged full-length TMEM74 fusion protein (UniProt Q96NL1). Put plainly: pull-down; GST or GST-TMEM74 on glutathione-Sepharose 4B beads with lysates of transfected HeLa cells, 4 h at 4 °C; five washes; western blot; only the target purified.
For assay [2], the target named is GFP-TMEM74 (UniProt Q96NL1). Put plainly: co-IP; HeLa cells co-transfected for 24 h; total cell extracts (1 mg) with anti-GFP or isotype control IgG and protein G sepharose, 4 h at 4 °C; five washes (50 mM Tris pH 8.0, 150 mM NaCl, 0.4% NP-40, 5 mM MgCl2); western blot.
Assay [3] addresses T1, GFP-ATG9A (UniProt Q7Z3C6).
T1 sequence: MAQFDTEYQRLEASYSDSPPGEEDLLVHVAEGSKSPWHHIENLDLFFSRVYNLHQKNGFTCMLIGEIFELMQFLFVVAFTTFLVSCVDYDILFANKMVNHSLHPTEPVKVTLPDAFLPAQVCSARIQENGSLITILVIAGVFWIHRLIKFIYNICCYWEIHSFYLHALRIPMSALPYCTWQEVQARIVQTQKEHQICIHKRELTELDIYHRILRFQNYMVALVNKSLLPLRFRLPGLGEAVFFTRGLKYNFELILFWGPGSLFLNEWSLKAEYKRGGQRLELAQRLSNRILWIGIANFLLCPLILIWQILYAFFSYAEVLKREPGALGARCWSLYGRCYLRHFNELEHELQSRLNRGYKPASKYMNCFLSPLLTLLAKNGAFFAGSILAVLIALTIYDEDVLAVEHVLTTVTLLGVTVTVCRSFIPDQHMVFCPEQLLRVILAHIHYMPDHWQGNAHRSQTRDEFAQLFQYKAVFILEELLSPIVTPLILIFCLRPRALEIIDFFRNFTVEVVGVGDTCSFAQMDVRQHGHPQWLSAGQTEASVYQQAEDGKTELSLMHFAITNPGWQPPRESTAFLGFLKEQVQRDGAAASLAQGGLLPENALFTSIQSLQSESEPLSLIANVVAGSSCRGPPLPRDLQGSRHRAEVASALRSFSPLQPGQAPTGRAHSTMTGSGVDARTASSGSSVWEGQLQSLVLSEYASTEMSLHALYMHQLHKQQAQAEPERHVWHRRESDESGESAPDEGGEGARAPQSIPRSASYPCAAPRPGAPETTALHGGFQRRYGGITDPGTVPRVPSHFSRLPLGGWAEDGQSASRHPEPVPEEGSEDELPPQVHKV
The description is as above.

Assay [4] deals with GFP-ATG16L1 (UniProt Q676U5). The assay is described as above.
Assay [5] has as its target GFP-ATG16L1(1–320) (UniProt Q676U5). The description is as above.
Assay [6] concerns the target T2, GFP-ATG9A(1–495) (UniProt Q7Z3C6).
T2 sequence: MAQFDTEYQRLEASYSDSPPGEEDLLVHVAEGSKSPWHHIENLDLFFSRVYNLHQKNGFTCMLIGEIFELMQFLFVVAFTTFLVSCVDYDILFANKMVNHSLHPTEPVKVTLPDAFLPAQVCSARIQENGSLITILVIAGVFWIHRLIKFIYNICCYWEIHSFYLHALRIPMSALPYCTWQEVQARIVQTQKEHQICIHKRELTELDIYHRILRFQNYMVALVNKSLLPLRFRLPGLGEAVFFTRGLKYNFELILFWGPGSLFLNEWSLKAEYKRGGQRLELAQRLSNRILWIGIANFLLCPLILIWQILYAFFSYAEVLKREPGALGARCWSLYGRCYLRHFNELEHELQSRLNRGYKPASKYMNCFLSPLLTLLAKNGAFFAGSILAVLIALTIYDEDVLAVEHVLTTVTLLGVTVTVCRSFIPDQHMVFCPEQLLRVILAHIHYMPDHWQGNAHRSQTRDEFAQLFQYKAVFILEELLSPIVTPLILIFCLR
Described as above.

Assay [7] deals with T3, GFP-ATG9A△(153–289) (UniProt Q7Z3C6).
T3 sequence: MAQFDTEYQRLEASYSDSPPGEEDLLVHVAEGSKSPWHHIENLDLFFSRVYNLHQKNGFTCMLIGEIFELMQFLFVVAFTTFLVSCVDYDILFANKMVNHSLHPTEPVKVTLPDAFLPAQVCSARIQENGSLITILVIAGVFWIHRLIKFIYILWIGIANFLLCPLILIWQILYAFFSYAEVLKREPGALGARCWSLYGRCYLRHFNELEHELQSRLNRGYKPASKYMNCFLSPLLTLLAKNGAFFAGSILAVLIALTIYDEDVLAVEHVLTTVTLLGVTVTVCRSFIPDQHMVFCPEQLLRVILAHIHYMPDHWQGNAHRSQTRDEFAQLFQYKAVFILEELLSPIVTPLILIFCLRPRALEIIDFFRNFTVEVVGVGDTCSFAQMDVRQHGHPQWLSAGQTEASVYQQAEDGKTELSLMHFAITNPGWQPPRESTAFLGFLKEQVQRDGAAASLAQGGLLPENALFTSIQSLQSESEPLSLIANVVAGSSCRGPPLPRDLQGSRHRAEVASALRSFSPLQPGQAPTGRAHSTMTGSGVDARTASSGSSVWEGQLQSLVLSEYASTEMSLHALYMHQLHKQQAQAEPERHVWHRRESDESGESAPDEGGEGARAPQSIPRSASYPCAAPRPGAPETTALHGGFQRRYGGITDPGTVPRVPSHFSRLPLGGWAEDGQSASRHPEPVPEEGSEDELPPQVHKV
Described as above.

Assay [8] addresses T4, GFP-ATG9A△(1–495) (UniProt Q7Z3C6).
T4 sequence: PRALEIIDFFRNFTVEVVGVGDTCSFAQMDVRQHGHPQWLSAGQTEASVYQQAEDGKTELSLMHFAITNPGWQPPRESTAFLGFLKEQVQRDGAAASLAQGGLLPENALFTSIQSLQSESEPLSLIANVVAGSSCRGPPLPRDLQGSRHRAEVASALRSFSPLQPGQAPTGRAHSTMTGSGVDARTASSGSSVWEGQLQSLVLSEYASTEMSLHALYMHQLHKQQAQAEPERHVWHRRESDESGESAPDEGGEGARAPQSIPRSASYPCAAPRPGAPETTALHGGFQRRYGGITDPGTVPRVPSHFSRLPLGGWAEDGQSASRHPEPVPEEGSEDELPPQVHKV
Described as above.

In assay [9] the target is GST-tagged full-length TMEM74 fusion protein (UniProt Q96NL1). Put plainly: pull-down; GST or GST-TMEM74 on glutathione-Sepharose 4B beads with lysates of transfected HeLa cells, 4 h at 4 °C; five washes; western blot; only the target purified. This is another data set of the same source.
In assay [10] the target is T1, GFP-ATG9A. Put plainly: co-IP; HeLa cells treated with siTMEM74-1, siTMEM74-2 or siControl for 24 h, then transfected with the GFP-tagged bait for 24 h and treated with EBSS for at least 8 h; IP with anti-GFP or non-specific control IgG; endogenous prey by western blot.

As for GFP-ATG16L1 (from UniProt Q676U5 1-607), the binding result in assay [1] is “binds”.
On to “endogenous ATG16L1 (from UniProt Q676U5 1-607)”, for which, in assay [2], the binding result was “binds”.
As for “endogenous TMEM74 (from UniProt Q96NL1 1-305)”, the binding entry in assay [3], in assay [4] and in [5] was “binds” in each case.
Take “mCherry-TMEM74 (from UniProt Q96NL1 1-305)”: the binding result in assay [6] was “binds”; in assay [3], “binds”; in assay [4], “binds”; in assay [7], “no binding”; in assay [5], “binds”; in assay [5] (record 2), “no binding”. Besides, the binding result in [8] is on record as “no binding”.

B1: GFP-ATG9A (protein, UniProt Q7Z3C6 1-839)
chain: MAQFDTEYQRLEASYSDSPPGEEDLLVHVAEGSKSPWHHIENLDLFFSRVYNLHQKNGFTCMLIGEIFELMQFLFVVAFTTFLVSCVDYDILFANKMVNHSLHPTEPVKVTLPDAFLPAQVCSARIQENGSLITILVIAGVFWIHRLIKFIYNICCYWEIHSFYLHALRIPMSALPYCTWQEVQARIVQTQKEHQICIHKRELTELDIYHRILRFQNYMVALVNKSLLPLRFRLPGLGEAVFFTRGLKYNFELILFWGPGSLFLNEWSLKAEYKRGGQRLELAQRLSNRILWIGIANFLLCPLILIWQILYAFFSYAEVLKREPGALGARCWSLYGRCYLRHFNELEHELQSRLNRGYKPASKYMNCFLSPLLTLLAKNGAFFAGSILAVLIALTIYDEDVLAVEHVLTTVTLLGVTVTVCRSFIPDQHMVFCPEQLLRVILAHIHYMPDHWQGNAHRSQTRDEFAQLFQYKAVFILEELLSPIVTPLILIFCLRPRALEIIDFFRNFTVEVVGVGDTCSFAQMDVRQHGHPQWLSAGQTEASVYQQAEDGKTELSLMHFAITNPGWQPPRESTAFLGFLKEQVQRDGAAASLAQGGLLPENALFTSIQSLQSESEPLSLIANVVAGSSCRGPPLPRDLQGSRHRAEVASALRSFSPLQPGQAPTGRAHSTMTGSGVDARTASSGSSVWEGQLQSLVLSEYASTEMSLHALYMHQLHKQQAQAEPERHVWHRRESDESGESAPDEGGEGARAPQSIPRSASYPCAAPRPGAPETTALHGGFQRRYGGITDPGTVPRVPSHFSRLPLGGWAEDGQSASRHPEPVPEEGSEDELPPQVHKV
As to B1, the binding result in assay [9] was “binds”.

B2: endogenous WIPI1 (protein, UniProt Q5MNZ9 1-446)
chain: MEAEAADAPPGGVESALSCFSFNQDCTSLATGTKAGYKLFSLSSVEQLDQVHGSNEIPDVYIVERLFSSSLVVVVSHTKPRQMNVYHFKKGTEICNYSYSSNILSIRLNRQRLLVCLEESIYIHNIKDMKLLKTLLDIPANPTGLCALSINHSNSYLAYPGSLTSGEIVLYDGNSLKTVCTIAAHEGTLAAITFNASGSKLASASEKGTVIRVFSVPDGQKLYEFRRGMKRYVTISSLVFSMDSQFLCASSNTETVHIFKLEQVTNSRPEEPSTWSGYMGKMFMAATNYLPTQVSDMMHQDRAFATARLNFSGQRNICTLSTIQKLPRLLVASSSGHLYMYNLDPQDGGECVLIKTHSLLGSGTTEENKENDLRPSLPQSYAATVARPSASSASTVPGYSEDGGALRGEVIPEHEFATGPVCLDDENEFPPIILCRGNQKGKTKQS
Take B2: the binding result in assay [10] is listed as “binds”.
